# Experimental data: the BET-seq Pho4 binding data (Le et al. 2018)
# The list shows a part of the results. The energies were worked out here from pooled read counts, against the library average; single values are noisy.
# Target: T1, Pho4 (S. cerevisiae) (UniProt P07270)
# T1 sequence: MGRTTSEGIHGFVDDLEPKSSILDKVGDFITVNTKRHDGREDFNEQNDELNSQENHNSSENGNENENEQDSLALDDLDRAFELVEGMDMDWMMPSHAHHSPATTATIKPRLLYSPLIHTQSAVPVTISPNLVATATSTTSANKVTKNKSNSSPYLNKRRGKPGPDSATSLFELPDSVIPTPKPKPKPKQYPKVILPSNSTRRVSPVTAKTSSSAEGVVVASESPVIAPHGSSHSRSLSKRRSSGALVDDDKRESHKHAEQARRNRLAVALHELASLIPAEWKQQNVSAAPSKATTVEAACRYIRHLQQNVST
# Assay: relative binding free energy (BET-seq); higher = weaker binding
# Settings: reference: library average
row,Sequence,relative binding free energy
1,CACGTCACGTGGGGGT,-0.1 kcal/mol
2,TTATCCACGTGAATGT,0.44 kcal/mol
3,TTCAACACGTGGGTGA,-0.01 kcal/mol
4,GGGGGCACGTGAGTGC,0.03 kcal/mol
5,AGTGTCACGTGCGAAG,0 kcal/mol
6,TGAGTCACGTGTGTAG,0.09 kcal/mol
7,GATGTCACGTGACGGT,0.34 kcal/mol
8,TAGTACACGTGGGACG,-0.05 kcal/mol
9,CTGATCACGTGTTATG,0.11 kcal/mol
10,TGCGACACGTGATGTT,0.15 kcal/mol
11,ATGTTCACGTGGGGTT,0.15 kcal/mol
12,GTATGCACGTGGGTGT,-0.12 kcal/mol
13,GGCGGCACGTGCGGGT,-0.11 kcal/mol
14,CGTTTCACGTGGTTGC,0.12 kcal/mol
15,AGTTGCACGTGCGGGG,-0.2 kcal/mol
16,AGTTGCACGTGAGTCG,0.1 kcal/mol
17,GTTATCACGTGAAATG,0.34 kcal/mol
18,GGTGGCACGTGGCATT,-0.16 kcal/mol
19,ATAAACACGTGTTAGT,0 kcal/mol
20,CAAGGCACGTGAGTGT,0 kcal/mol
21,CAGTTCACGTGAATGT,0.31 kcal/mol
22,TAGCTCACGTGTCGGT,0.35 kcal/mol
23,GAACTCACGTGGTGTG,0.18 kcal/mol
24,AGCGTCACGTGAGAGG,0.14 kcal/mol
25,TTGATCACGTGAGTTG,0.33 kcal/mol
26,GGACCCACGTGGTGGG,-0.17 kcal/mol

row,Sequence,relative binding free energy
1,ATTGTCACGTGGTTGA,0.01 kcal/mol
2,TTAGGCACGTGATGAG,0.04 kcal/mol
3,GCTGTCACGTGATGGA,0.17 kcal/mol
4,GTTGTCACGTGCATGC,0.1 kcal/mol
5,GTTAACACGTGATGAG,0.26 kcal/mol
6,GGGATCACGTGTTTGG,0.3 kcal/mol
7,ATTTTCACGTGGGTAT,0.13 kcal/mol
8,TCAGGCACGTGAGGCT,0.24 kcal/mol
9,TTTGACACGTGAGAAT,0.19 kcal/mol
10,TAATGCACGTGTCAGT,-0.07 kcal/mol
11,TGTATCACGTGGGGGC,0.07 kcal/mol
12,TGTATCACGTGCTCGT,-0.03 kcal/mol
13,ACTGGCACGTGGTCGT,-0.13 kcal/mol
14,AAGGCCACGTGTGTTT,-0.08 kcal/mol
15,GTTTCCACGTGCAGGT,0.23 kcal/mol
16,TCGGTCACGTGGCGGA,0.13 kcal/mol
17,TAAAACACGTGTTGTG,-0.01 kcal/mol
18,AGTGGCACGTGGTTAC,-0.06 kcal/mol
19,ATTAGCACGTGGGGGT,-0.26 kcal/mol
20,TTTGTCACGTGATGTC,0.19 kcal/mol
21,GACTGCACGTGGGTTG,0.02 kcal/mol
22,CATTACACGTGGGGTT,-0.04 kcal/mol
23,CGGATCACGTGTAAGG,0.44 kcal/mol
24,AGGTTCACGTGTGCAG,0.25 kcal/mol
25,CATGGCACGTGGTTCG,-0.13 kcal/mol
26,ATAAGCACGTGAAGGG,0.11 kcal/mol

row,Sequence,relative binding free energy
1,ATAATCACGTGTGTGC,0.18 kcal/mol
2,AGGATCACGTGAAAGT,0.33 kcal/mol
3,AGATTCACGTGTGTGA,0.33 kcal/mol
4,GATAGCACGTGCTTGG,-0.07 kcal/mol
5,GGTAACACGTGTTAAA,0.22 kcal/mol
6,TTGTACACGTGGAATT,0.21 kcal/mol
7,TTGGGCACGTGGCTTT,-0.19 kcal/mol
8,GGTTTCACGTGGTAAC,0.41 kcal/mol
9,AAAGACACGTGTTGGT,0.06 kcal/mol
10,CAATTCACGTGGGGTT,0.22 kcal/mol
11,GTGGGCACGTGCGGTT,-0.11 kcal/mol
12,ATTGTCACGTGGTCTC,0.1 kcal/mol
13,ATATTCACGTGTTGCG,0.26 kcal/mol
14,GCTGTCACGTGAGGGT,0.19 kcal/mol
15,TAGCGCACGTGTTGCT,0.05 kcal/mol
16,ACAGACACGTGTGTGG,-0.01 kcal/mol
17,CTAGTCACGTGCGTGG,-0.07 kcal/mol
18,TATCGCACGTGTTTTA,-0.02 kcal/mol
19,TTGGTCACGTGTCCAG,0.17 kcal/mol
20,GGCGGCACGTGGGCGG,-0.14 kcal/mol
21,GTGGTCACGTGGTTGA,0.15 kcal/mol
22,GATATCACGTGGTTTG,0.06 kcal/mol
23,GGTCACACGTGCGTGT,0.07 kcal/mol
24,ATTGCCACGTGTTTAT,-0.15 kcal/mol
25,TGACTCACGTGTTGTG,0.09 kcal/mol
26,CATTTCACGTGTGAGG,0.13 kcal/mol

row,Sequence,relative binding free energy
1,GTGATCACGTGCGGTG,-0.02 kcal/mol
2,GTGACCACGTGTTTGT,0.01 kcal/mol
3,ATGGACACGTGGTGGA,0.03 kcal/mol
4,GCGTACACGTGGTTGG,0.01 kcal/mol
5,ATATCCACGTGGTATT,-0.06 kcal/mol
6,GGGTGCACGTGTTATA,0.03 kcal/mol
7,TAGGCCACGTGTGGAG,-0.06 kcal/mol
8,TGTACCACGTGTTGTT,-0.11 kcal/mol
9,CAGATCACGTGGGCGG,-0.02 kcal/mol
10,TTGGACACGTGTTGCG,0.01 kcal/mol
11,TCGTTCACGTGAATGT,0.41 kcal/mol
12,TGCAACACGTGTGGGT,0.01 kcal/mol
13,AGTTGCACGTGTTAGA,-0.04 kcal/mol
14,TTCTTCACGTGGTGTT,0.3 kcal/mol
15,TGAGACACGTGTTTAT,-0.03 kcal/mol
16,TGTTTCACGTGGTTTC,0.23 kcal/mol
17,TGGGCCACGTGAAGGT,-0.03 kcal/mol
18,TGAGACACGTGATTTT,0.24 kcal/mol
19,AACGGCACGTGGGTGG,-0.24 kcal/mol
20,ATGGGCACGTGGGGTG,-0.26 kcal/mol
21,CGTGTCACGTGGCTGA,0.02 kcal/mol
22,AGTAGCACGTGCGTGT,-0.26 kcal/mol
23,CAAGGCACGTGGTATG,-0.22 kcal/mol
24,ATGCGCACGTGTAGTG,-0.03 kcal/mol
25,GGCGGCACGTGATCGG,0.1 kcal/mol
26,AGTAGCACGTGAGACG,0.24 kcal/mol

row,Sequence,relative binding free energy
1,CGGTGCACGTGGAGCT,0.03 kcal/mol
2,GGGTTCACGTGTTCAG,0.39 kcal/mol
3,GATTGCACGTGTTGCG,0.08 kcal/mol
4,TTGCCCACGTGGGTGG,-0.24 kcal/mol
5,TGGGCCACGTGAGTGA,0.21 kcal/mol
6,TAGGGCACGTGTGGCT,-0.21 kcal/mol
7,AACGGCACGTGTAGAG,0.06 kcal/mol
8,GTGTTCACGTGGCTGG,0.22 kcal/mol
9,TGAGGCACGTGTTGTT,-0.05 kcal/mol
10,GATTCCACGTGGGAGG,0.06 kcal/mol
11,GTAGTCACGTGAGGGG,0.37 kcal/mol
12,TAAGGCACGTGCATGG,-0.21 kcal/mol
13,TCATGCACGTGTTGGC,0.11 kcal/mol
14,ATAAGCACGTGTTGTC,0 kcal/mol
15,TAGTGCACGTGTTTAA,-0.11 kcal/mol
16,GGGGGCACGTGCATCG,-0.13 kcal/mol
17,GCTTGCACGTGTATTT,0.27 kcal/mol
18,AAAATCACGTGATTTG,0.34 kcal/mol
19,TAGGCCACGTGGTATG,-0.22 kcal/mol
20,ATTGGCACGTGCTTGT,-0.21 kcal/mol
21,TGATGCACGTGGATTT,0.02 kcal/mol
22,ATTTACACGTGTGGAG,0.14 kcal/mol
23,TGATGCACGTGCTGGC,-0.04 kcal/mol
24,ATGACCACGTGAGGGT,0.02 kcal/mol
25,AGTCACACGTGGGTGG,-0.07 kcal/mol
26,GGAAGCACGTGGGCTT,-0.15 kcal/mol

row,Sequence,relative binding free energy
1,TGGTGCACGTGTAGCT,-0.13 kcal/mol
2,GGTGTCACGTGAGAGC,0.23 kcal/mol
3,GGCAACACGTGGGTGT,-0.14 kcal/mol
4,TGATGCACGTGATAGT,-0.05 kcal/mol
5,TTTGCCACGTGGGAGT,-0.1 kcal/mol
6,AGCTACACGTGAGGGT,0.26 kcal/mol
7,TCGTCCACGTGTTGTG,-0.02 kcal/mol
8,TAGAGCACGTGTGAAT,0.03 kcal/mol
9,CGGGTCACGTGAGTTT,0.31 kcal/mol
10,AAGGTCACGTGGCTGA,0.01 kcal/mol
11,TGGCTCACGTGTGATG,0.33 kcal/mol
12,AATGCCACGTGGGGTT,-0.35 kcal/mol
13,AGAGGCACGTGAGTGT,0.16 kcal/mol
14,GTGCGCACGTGTTGTG,-0.09 kcal/mol
15,GGATTCACGTGGACTT,0.34 kcal/mol
16,TTGGGCACGTGTTTCG,-0.16 kcal/mol
17,GTTATCACGTGGTTCT,0.06 kcal/mol
18,TAGGTCACGTGCGTTA,0.13 kcal/mol
19,ACGGGCACGTGGGGTG,-0.37 kcal/mol
20,GGTATCACGTGTGAAA,0.17 kcal/mol
21,TATTCCACGTGTTGAT,0.16 kcal/mol
22,CTTTTCACGTGGCTAG,0.32 kcal/mol
23,GATGTCACGTGCATTT,0.09 kcal/mol
24,CTTAACACGTGGGCGT,-0.08 kcal/mol
25,CAGGGCACGTGTTGTT,-0.01 kcal/mol
26,ATGTGCACGTGTCCTG,-0.01 kcal/mol

row,Sequence,relative binding free energy
1,TGGCACACGTGTGGGG,0.19 kcal/mol
2,CAGTTCACGTGGGTTC,0.16 kcal/mol
3,GTTAGCACGTGATATT,0.1 kcal/mol
4,TTTTACACGTGTGCTC,0.16 kcal/mol
5,TTTAGCACGTGGGGAA,-0.02 kcal/mol
6,GTCATCACGTGAGGTT,0.16 kcal/mol
7,TTTATCACGTGGGCTA,-0.09 kcal/mol
8,TTACTCACGTGAAGTT,0.47 kcal/mol
9,AGTTGCACGTGGCAGG,-0.08 kcal/mol
10,GTTTGCACGTGAAGTA,0.23 kcal/mol
11,TTGGTCACGTGGCTGT,0.01 kcal/mol
12,CTGGGCACGTGGAGTA,-0.27 kcal/mol
13,ATTCGCACGTGCTGTA,0.01 kcal/mol
14,GTAATCACGTGGGTTG,0.16 kcal/mol
15,GTTGTCACGTGGAGTG,0.09 kcal/mol
16,TTATTCACGTGTTTTC,0.19 kcal/mol
17,TGCTTCACGTGGGGGG,0.22 kcal/mol
18,TGGTTCACGTGGGCGT,0.15 kcal/mol
19,CTCGTCACGTGTTGGT,0.07 kcal/mol
20,GCAAGCACGTGGTGGA,-0.02 kcal/mol
21,TTCAGCACGTGTATTG,-0.05 kcal/mol
22,GCTTTCACGTGTGGGG,0.34 kcal/mol
23,TTGTGCACGTGAAGTC,0.25 kcal/mol
24,AGTGACACGTGTGCTG,-0.18 kcal/mol
25,TTTGTCACGTGGGTCC,0.05 kcal/mol
26,TGTGACACGTGGCTAA,-0.04 kcal/mol

row,Sequence,relative binding free energy
1,GGTGGCACGTGGTTTC,-0.1 kcal/mol
2,ATAAGCACGTGGGTGG,-0.25 kcal/mol
3,AGTATCACGTGGTGCA,0.05 kcal/mol
4,GGTATCACGTGAGTCG,0.39 kcal/mol
5,GTCTTCACGTGATTTC,0.6 kcal/mol
6,TTCGGCACGTGTTGTC,0.08 kcal/mol
7,GTGGACACGTGATGAT,0.11 kcal/mol
8,GGAGGCACGTGCGATT,0.05 kcal/mol
9,TTAGGCACGTGAGGTA,0.1 kcal/mol
10,TAAGCCACGTGTGTGG,-0.12 kcal/mol
11,TCGATCACGTGAGAGG,0.39 kcal/mol
12,GGTAGCACGTGGTGGC,-0.13 kcal/mol
13,GTGAACACGTGTGTAA,0.03 kcal/mol
14,ACGTTCACGTGACGGG,0.46 kcal/mol
15,TAAATCACGTGAGGTG,0.15 kcal/mol
16,GGGTGCACGTGCCTGT,-0.15 kcal/mol
17,GGTTGCACGTGTCAGT,0.17 kcal/mol
18,CTGGTCACGTGGCTGT,-0.02 kcal/mol
19,CGGTACACGTGATGGA,0.23 kcal/mol
20,TTCTACACGTGGTGGA,-0.08 kcal/mol
21,TAATACACGTGTAATT,0.14 kcal/mol
22,GTGTACACGTGATGCA,0.29 kcal/mol
23,TAACACACGTGTTGTT,-0.01 kcal/mol
24,GGAGACACGTGTGGGC,-0.12 kcal/mol
25,TGGCGCACGTGGGGTC,-0.28 kcal/mol
26,AAGTGCACGTGTCTTG,-0.15 kcal/mol

row,Sequence,relative binding free energy
1,ATGTCCACGTGGTTTG,-0.19 kcal/mol
2,TGCTGCACGTGGTTTC,-0.02 kcal/mol
3,GTTGTCACGTGCTGTA,0.21 kcal/mol
4,GAAAGCACGTGGGGAA,0.09 kcal/mol
5,TAACACACGTGGGTTA,-0.03 kcal/mol
6,CGACGCACGTGGGGTT,-0.23 kcal/mol
7,CGTGTCACGTGAGAGG,0.38 kcal/mol
8,GGGGGCACGTGCGGCC,-0.16 kcal/mol
9,GGGCCCACGTGGTGGT,-0.2 kcal/mol
10,AGTTTCACGTGACGGA,0.2 kcal/mol
11,TGTGACACGTGAATGG,0.12 kcal/mol
12,TCCGGCACGTGGGAGT,-0.11 kcal/mol
13,TGGGTCACGTGGCGTA,-0.04 kcal/mol
14,AATGGCACGTGGTACT,-0.25 kcal/mol
15,AAGGGCACGTGCGTTT,-0.22 kcal/mol
16,AAGGACACGTGGGTGT,-0.11 kcal/mol
17,TTAAGCACGTGATTGG,0.03 kcal/mol
18,TTACGCACGTGTTTGG,-0.09 kcal/mol
19,GTCTACACGTGTGGGG,0.1 kcal/mol
20,CTTGTCACGTGGCGGC,0.11 kcal/mol
21,AGAGTCACGTGTGAGT,0.19 kcal/mol
22,AAAGTCACGTGGGATT,0.11 kcal/mol
